# Reference: the supplement of paper PMC4604168 (melanoma cell lines)
# Some of the results follow. Repeats are few or missing, and single values can be far off.
# Test system: A2058
# Experiment: cell count relative to DMSO control; melanoma cells; higher = more viable cells
# Conditions: library dose: standard library concentration; 72 h
# 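Also: cells treated in 1,536-well plates, then fixed and DAPI-stained, with nuclei counted from automated high-throughput microscope images.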
row,SMILES,cell count [%]
1,"NC1(c2ccc(-c3nc4ccn5c(=O)[nH]nc5c4cc3-c3ccccc3)cc2)CCC1 + Cn1c(=O)n(-c2ccc(C(C)(C)C#N)cc2)c2c3cc(-c4cnc5ccccc5c4)ccc3ncc21 [NVP-BEZ235] (first compound 2 µM, partner dose 0.02 µM)",34.4
2,"C=C(c1ccc(C(=O)O)cc1)c1cc2c(cc1C)C(C)(C)CCC2(C)C [Bexarotene] + C#Cc1cccc(Nc2ncnc3cc(OCCOC)c(OCCOC)cc23)c1 [erlotinib] (first compound 10 µM, partner dose 4 µM)",86.5
3,"CCCS(=O)(=O)Nc1ccc(F)c(C(=O)c2c[nH]c3ncc(Cl)cc23)c1F + CC1(C)NC(=O)N(c2ccc([N+](=O)[O-])c(C(F)(F)F)c2)C1=O [nilutamide] (first compound 0.4 µM, partner dose 5 µM)",113
4,"NC1(c2ccc(-c3nc4ccn5c(=O)[nH]nc5c4cc3-c3ccccc3)cc2)CCC1 + C#Cc1cccc(Nc2ncnc3cc(OCCOC)c(OCCOC)cc23)c1 [erlotinib] (first compound 2 µM, partner dose 4 µM)",46.6
5,"CCCS(=O)(=O)Nc1ccc(F)c(C(=O)c2c[nH]c3ncc(Cl)cc23)c1F + OCCn1cc(-c2cnc3nnn(Cc4ccc5ncccc5c4)c3n2)cn1 [PF04217903] (first compound 0.4 µM, partner dose 5 µM)",91
6,"CS(=O)(=O)c1ccc(C(=O)Nc2ccc(Cl)c(-c3ccccn3)c2)c(Cl)c1 [vismodegib] + Nc1nc(F)nc2c1ncn2[C@@H]1O[C@H](CO)[C@@H](O)[C@@H]1O [fludarabine] (first compound 5 µM, partner dose 1 µM)",85.7
7,"NC1(c2ccc(-c3nc4ccn5c(=O)[nH]nc5c4cc3-c3ccccc3)cc2)CCC1 + C[C@]1(c2nc3c(C(N)=O)cccc3[nH]2)CCCN1 [Veliparib] (first compound 2 µM, partner dose 7 µM)",68.5
8,"CS(=O)(=O)c1ccc(C(=O)Nc2ccc(Cl)c(-c3ccccn3)c2)c(Cl)c1 [vismodegib] + C#Cc1cccc(Nc2ncnc3cc(OCCOC)c(OCCOC)cc23)c1 [erlotinib] (first compound 5 µM, partner dose 4 µM)",85.2
9,"CCCS(=O)(=O)Nc1ccc(F)c(C(=O)c2c[nH]c3ncc(Cl)cc23)c1F + NC(=O)Nc1cc(-c2cccc(F)c2)sc1C(=O)N[C@H]1CCCNC1 [AZD7762] (first compound 0.4 µM, partner dose 0.1 µM)",74.1
10,"C=C(c1ccc(C(=O)O)cc1)c1cc2c(cc1C)C(C)(C)CCC2(C)C [Bexarotene] + COc1ccc(Cl)c(Nc2nc3ccccc3nc2NS(=O)(=O)c2cccc(NC(=O)C(C)(C)N)c2)c1 [XL147] (first compound 10 µM, partner dose 4 µM)",84
11,"NC1(c2ccc(-c3nc4ccn5c(=O)[nH]nc5c4cc3-c3ccccc3)cc2)CCC1 + Nc1cccc2c1CN(C1CCC(=O)NC1=O)C2=O [lenalidomide] (first compound 2 µM, partner dose 5 µM)",94.6
12,"NC1(c2ccc(-c3nc4ccn5c(=O)[nH]nc5c4cc3-c3ccccc3)cc2)CCC1 + O=C(O)c1ccc(-c2c[nH]c3ncc(-c4ccccc4)cc23)cc1C1CCCC1 [GSK650394] (first compound 2 µM, partner dose 0.8 µM)",93.3
13,"C=C(c1ccc(C(=O)O)cc1)c1cc2c(cc1C)C(C)(C)CCC2(C)C [Bexarotene] + O=C(Nc1cccc(Cl)c1)Nc1ncc(CCNc2ncnc3ccsc23)s1 [SNS314] (first compound 10 µM, partner dose 0.004 µM)",81.9
14,"CCCS(=O)(=O)Nc1ccc(F)c(C(=O)c2c[nH]c3ncc(Cl)cc23)c1F + NCC(=O)Nc1ccc(-n2nc(C(F)(F)F)cc2-c2ccc3c(ccc4ccccc43)c2)cc1 [OSU03012] (first compound 0.4 µM, partner dose 5 µM)",85.3
15,"NC1(c2ccc(-c3nc4ccn5c(=O)[nH]nc5c4cc3-c3ccccc3)cc2)CCC1 + C=C(c1ccc(C(=O)O)cc1)c1cc2c(cc1C)C(C)(C)CCC2(C)C [Bexarotene] (first compound 2 µM, partner dose 10 µM)",64.9
16,"CCCS(=O)(=O)Nc1ccc(F)c(C(=O)c2c[nH]c3ncc(Cl)cc23)c1F + COc1cc(Nc2ncc(F)c(Nc3ccc4c(n3)NC(=O)C(C)(C)O4)n2)cc(OC)c1OC [Tamatinib] (first compound 0.4 µM, partner dose 2 µM)",69

# Test system: A375
# Experiment: as above
# Conditions: library dose: standard library concentration; 72 h
row,SMILES,cell count [%]
1,"CS(=O)(=O)c1ccc(C(=O)Nc2ccc(Cl)c(-c3ccccn3)c2)c(Cl)c1 [vismodegib] + CNC(=O)c1cc(Oc2ccc(NC(=O)Nc3ccc(Cl)c(C(F)(F)F)c3)cc2)ccn1 [sorafenib] (first compound 5 µM, partner dose 2 µM)",108
2,"C=C(c1ccc(C(=O)O)cc1)c1cc2c(cc1C)C(C)(C)CCC2(C)C [Bexarotene] + Clc1ccc(Nc2nnc(Cc3ccncc3)c3ccccc23)cc1 [vatalanib] (first compound 10 µM, partner dose 10 µM)",78.9
3,"CN(c1ncccc1CNc1nc(Nc2ccc3c(c2)CC(=O)N3)ncc1C(F)(F)F)S(C)(=O)=O + CO[C@H]1C[C@@H]2CC[C@@H](C)[C@@](O)(O2)C(=O)C(=O)N2CCCC[C@H]2C(=O)O[C@H]([C@H](C)C[C@@H]2CC[C@@H](OCCO)[C@H](OC)C2)CC(=O)[C@H](C)/C=C(\C)[C@@H](O)[C@@H](OC)C(=O)[C@H](C)C[C@H](C)/C=C/C=C/C=C/1C [everolimus] (first compound 0.4 µM, partner dose 0.1 µM)",93.8
4,"NC1(c2ccc(-c3nc4ccn5c(=O)[nH]nc5c4cc3-c3ccccc3)cc2)CCC1 + Cc1cc(N2CCOCC2)cc2[nH]c(-c3c(NC[C@@H](O)c4cccc(Cl)c4)cc[nH]c3=O)nc12 [BMS536924] (first compound 2 µM, partner dose 1 µM)",106
5,"NC1(c2ccc(-c3nc4ccn5c(=O)[nH]nc5c4cc3-c3ccccc3)cc2)CCC1 + NCC(=O)Nc1ccc(-n2nc(C(F)(F)F)cc2-c2ccc3c(ccc4ccccc43)c2)cc1 [OSU03012] (first compound 2 µM, partner dose 5 µM)",43.2
6,"CCCS(=O)(=O)Nc1ccc(F)c(C(=O)c2c[nH]c3ncc(Cl)cc23)c1F + Nc1ncn([C@H]2C[C@H](O)[C@@H](CO)O2)c(=O)n1 [decitabine] (first compound 0.4 µM, partner dose 0.5 µM)",99.1
7,"C=C(c1ccc(C(=O)O)cc1)c1cc2c(cc1C)C(C)(C)CCC2(C)C [Bexarotene] + Nc1cccc2c1CN(C1CCC(=O)NC1=O)C2=O [lenalidomide] (first compound 10 µM, partner dose 5 µM)",101
8,"C=C(c1ccc(C(=O)O)cc1)c1cc2c(cc1C)C(C)(C)CCC2(C)C [Bexarotene] + NC(=O)Nc1cc(-c2cccc(F)c2)sc1C(=O)N[C@H]1CCCNC1 [AZD7762] (first compound 10 µM, partner dose 0.1 µM)",55.6
9,"CCCS(=O)(=O)Nc1ccc(F)c(C(=O)c2c[nH]c3ncc(Cl)cc23)c1F + O=C(CCCCCCC(=O)Nc1ccccc1)NO [vorinostat] (first compound 0.4 µM, partner dose 0.4 µM)",98.5
10,"CN(c1ncccc1CNc1nc(Nc2ccc3c(c2)CC(=O)N3)ncc1C(F)(F)F)S(C)(=O)=O + CCCS(=O)(=O)Nc1ccc(F)c(C(=O)c2c[nH]c3ncc(Cl)cc23)c1F [PLX4720] (first compound 0.4 µM, partner dose 0.4 µM)",56.6
11,"NC1(c2ccc(-c3nc4ccn5c(=O)[nH]nc5c4cc3-c3ccccc3)cc2)CCC1 + COc1ccc(Cl)c(Nc2nc3ccccc3nc2NS(=O)(=O)c2cccc(NC(=O)C(C)(C)N)c2)c1 [XL147] (first compound 2 µM, partner dose 4 µM)",100
12,"CS(=O)(=O)c1ccc(C(=O)Nc2ccc(Cl)c(-c3ccccn3)c2)c(Cl)c1 [vismodegib] + C=CCn1c(=O)c2cnc(Nc3ccc(N4CCN(C)CC4)cc3)nc2n1-c1cccc(C(C)(C)O)n1 [MK1775] (first compound 5 µM, partner dose 0.1 µM)",77.9
13,"CS(=O)(=O)c1ccc(C(=O)Nc2ccc(Cl)c(-c3ccccn3)c2)c(Cl)c1 [vismodegib] + COc1ccc(Cl)c(Nc2nc3ccccc3nc2NS(=O)(=O)c2cccc(NC(=O)C(C)(C)N)c2)c1 [XL147] (first compound 5 µM, partner dose 4 µM)",78.3
14,"NC1(c2ccc(-c3nc4ccn5c(=O)[nH]nc5c4cc3-c3ccccc3)cc2)CCC1 + COc1cc(Nc2ncc(F)c(Nc3ccc4c(n3)NC(=O)C(C)(C)O4)n2)cc(OC)c1OC [Tamatinib] (first compound 2 µM, partner dose 2 µM)",101
15,"C=C(c1ccc(C(=O)O)cc1)c1cc2c(cc1C)C(C)(C)CCC2(C)C [Bexarotene] + NCC(=O)Nc1ccc(-n2nc(C(F)(F)F)cc2-c2ccc3c(ccc4ccccc43)c2)cc1 [OSU03012] (first compound 10 µM, partner dose 5 µM)",40.8
